{
  "source": "PubChem BioAssay AID1963576",
  "about": "(National Center for Advancing Translational Sciences (NCATS), 2024)",
  "note": "Among all 46,000 compounds or so, about 60 (0.1%) were called active. Roughly 3% stayed inconclusive and do not appear here. The call rests on the fitted dose curve; in most records, active means well fitted inhibition curve with a large enough effect; inconclusive means small, poorly fitted or top-dose-only effect; inactive means no such curve, though single readings can be large or run the other way. The list shows a part of the results.",
  "data": [
    {"test": "Primary qHTS assay for Inhibitors of ovarian cancer metastasis using an organotypic tumor microenvironment (TME) model; further: nearly all actives have a fitted effect of over 65% in size;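 on activity change, negative = inhibition: plate controls were DMSO wells for no effect and tomatine positive control wells for full effect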.", "settings": "SKOV3ip1-GFP adhesion/invasion on 3D omental model, fluorescence; series mostly up to 45.8 µM; activity change, negative = inhibition: at the top concentration", "in_short": "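A 3D layer of primary human omental fibroblasts, mesothelial cells, fibronectin and collagen I, grown 48 hr, received SKOV3ip1-GFP cells in serum-free medium plus compounds at 0.36-46 umol/L. After 2 hr RT and 16 hr 37 C, fixed adherent GFP cells were counted; normalized to DMSO and tomatine.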", "values": [
      {"smiles": "COc1cccc(CNC(=O)C2CCCN(c3nc4ccccc4n4cccc34)C2)c1", "note": "(centres undefined)", "outcome": "inactive"},
      {"smiles": "CCc1ccccc1NC(=O)CSc1nc2c(oc3ccccc32)c(=O)n1C", "activity change, negative = inhibition": "inactive: 3.28%"},
      {"smiles": "NC(=O)C1CCN(S(=O)(=O)c2ccc(N3CCCCS3(=O)=O)cc2)CC1", "outcome": "inactive"},
      {"smiles": "Cc1ccc(-c2nc(N3CCCC(C)C3)c3ccccc3n2)cc1", "note": "(centres undefined)", "activity change, negative = inhibition": "inactive: 11.7%"},
      {"smiles": "CCOc1ccc(N2CC(NC(=O)C3CC3)CC2=O)cc1", "note": "(centres undefined)", "activity change, negative = inhibition": "inactive: -14.3%"},
      {"smiles": "COc1ccc(-n2nc(C(=O)NCc3ccc(F)cc3Cl)c3c4ccccc4n(C)c3c2=O)cc1Cl", "activity change, negative = inhibition": "inactive: -3.54%"},
      {"smiles": "COCC(C)Nc1ncnc2c1cnn2-c1ccc(C)c(C)c1", "note": "(centres undefined)", "activity change, negative = inhibition": "inactive: 4.23%"},
      {"smiles": "CCCOc1ccc(C2CC(=O)Nc3c2c(=O)n(C)c(=O)n3C)cc1OC", "note": "(centres undefined)", "outcome": "inactive"},
      {"smiles": "Cc1ccc(C(=O)Nc2cccc(C(=O)OCc3cc(=O)n4nc(C5CC5)sc4n3)c2)cc1", "activity change, negative = inhibition": "inactive: 0.935%"},
      {"smiles": "Cc1c(C(=O)Nc2ccccc2Cl)oc2ccc(S(=O)(=O)N3CCCCC3)cc12", "outcome": "inactive"},
      {"smiles": "CCCn1c2ccc(F)cc2c2nnc(SCCN(CC)CC)nc21", "activity change, negative = inhibition": "inactive: -24.5%"},
      {"smiles": "Clc1ccc(Nc2c(-c3ccccc3Cl)nc3ccc(Cl)cn23)cc1", "activity change, negative = inhibition": "inactive: 5.96%"},
      {"smiles": "CC(NC(=O)c1ccc2c(c1)sc1nc(-c3ccccc3)cn12)C12CC3CC(CC(C3)C1)C2", "note": "(centres undefined)", "activity change, negative = inhibition": "inactive: -9.23%"},
      {"smiles": "Cn1c(=O)c(=O)n(C)c2cc(S(=O)(=O)N3CCN(c4ccccc4)CC3)ccc21", "activity change, negative = inhibition": "inactive: -2.53%"},
      {"smiles": "Cc1cccc(C(=O)Oc2c(Sc3ccccc3)c(C)nn2C(C)(C)C)c1", "activity change, negative = inhibition": "inactive: -6.06%"},
      {"smiles": "CCCCN(CC)CCCNC(=O)Cn1ncc2c3ccccc3n(Cc3ccc(F)cc3)c2c1=O", "activity change, negative = inhibition": "inactive: 3.5%"},
      {"smiles": "COc1ccc(CNC(=O)CSc2c3c(nc4ccc(Cl)cc24)CCCC3)cc1", "outcome": "inactive"},
      {"smiles": "CCc1nn(CC(=O)Nc2ccc(NC(C)=O)cc2)c(=O)c2cc3sccc3n12", "outcome": "inactive"},
      {"smiles": "COc1ccc(Nc2c3c(nc4nncn24)CCC3)cc1OC", "outcome": "inactive"},
      {"smiles": "COc1ccc(S(=O)(=O)NCc2nc3nc(C)cc(C)n3n2)cc1OC", "activity change, negative = inhibition": "inactive: -26.4%"},
      {"smiles": "CCOC(=O)c1ccc(N2C(=O)c3n[nH]c(-c4ccco4)c3C2c2cccc(O)c2)cc1", "note": "(centres undefined)", "activity change, negative = inhibition": "inactive: -15.8%"},
      {"smiles": "CCOc1ccc(NC(=O)N2CCN3CCCCC3C2)cc1", "note": "(centres undefined)", "outcome": "inactive"},
      {"smiles": "COCCNC(=O)CN1C(=O)c2cccnc2Oc2ccc(Cl)cc21", "activity change, negative = inhibition": "inactive: 4.45%"},
      {"smiles": "Cc1ccc(S(=O)(=O)N(CCc2ccccc2)CC(=O)Nc2ccc(Br)cc2)cc1", "activity change, negative = inhibition": "inactive: -10.1%"},
      {"smiles": "O=C(Cn1cnc2onc(-c3ccc(Cl)cc3)c2c1=O)Nc1ccc(F)cc1", "activity change, negative = inhibition": "inactive: -12.5%"},
      {"smiles": "COc1ccc(-c2nc(CNS(=O)(=O)c3cccc(F)c3)cs2)cc1", "activity change, negative = inhibition": "inactive: -20.5%"},
      {"smiles": "CCc1cccc(CC)c1NC(=O)CCS(=O)(=O)c1ccc2c(c1)CCN2C(C)=O", "outcome": "inactive"},
      {"smiles": "CCc1ccccc1NC(=O)Cn1c(SCc2ccc(F)cc2)nc2ccncc21", "activity change, negative = inhibition": "inactive: 7.38%"},
      {"smiles": "CCOc1ccccc1NC(=O)C1=C(C)Nc2ncnn2C1c1ccc(C)o1", "note": "(centres undefined)", "activity change, negative = inhibition": "inactive: -27.1%"},
      {"smiles": "COc1ccc(-c2nc(CCNC(=O)c3ccc(Br)o3)cs2)cc1", "activity change, negative = inhibition": "inactive: -25%"},
      {"smiles": "O=[N+]([O-])c1cc(-c2nc(-c3ccccc3)no2)ccc1N1CCOCC1", "activity change, negative = inhibition": "inactive: -3.25%"},
      {"smiles": "Cc1cccc(NC(=O)c2oc3ccccc3c2NC(=O)Cc2coc3ccc(C(C)C)cc23)c1", "activity change, negative = inhibition": "inactive: 1.35%"},
      {"smiles": "CC1CCN(C(=O)C2COc3ccccc3C2)CC1", "note": "(centres undefined)", "activity change, negative = inhibition": "inactive: 1.82%"},
      {"smiles": "Cc1ccc(Nc2sc(C(=O)c3ccccc3)c(N)c2C(N)=O)cc1", "activity change, negative = inhibition": "inactive: -12.1%"},
      {"smiles": "O=C(CCCn1c(=O)c2cccn2c2ccccc21)NCc1ccccc1Br", "activity change, negative = inhibition": "inactive: -5.97%"},
      {"smiles": "COc1cc(C(C)C)c2c(c1)S(=O)(=O)N(COc1cc(=O)n3cccc(OCCN4CCCCC4)c3n1)C2=O", "activity change, negative = inhibition": "inactive: 16.1%"},
      {"smiles": "CCOC(=O)C1=C(CN(C)Cc2ccccc2)NC(=O)NC1c1ccc(OC)cc1", "note": "(centres undefined)", "outcome": "inactive"},
      {"smiles": "CCOc1ccc(NC(=O)N(C)CCc2c(C)nn(C)c2C)cc1", "activity change, negative = inhibition": "inactive: -0.988%"},
      {"smiles": "O=C(NCC(c1cccnc1)N1CCc2ccccc21)c1ccc(F)cc1", "note": "(centres undefined)", "activity change, negative = inhibition": "inactive: -8.79%"},
      {"smiles": "CCOc1ccc(CCNC(=O)CSc2nnnn2-c2ccc(C)cc2C)cc1OCC", "outcome": "inactive"},
      {"smiles": "Cc1ccc(NC(=O)c2ccc(CNS(=O)(=O)c3ccc4c(c3)C(C)(C)C(=O)N4C)cc2)cc1F", "activity change, negative = inhibition": "inactive: -1.43%"},
      {"smiles": "CCCCOc1ccccc1C(=O)N(Cc1cccc(F)c1)C1CCS(=O)(=O)C1", "note": "(centres undefined)", "activity change, negative = inhibition": "inactive: 7.09%"},
      {"smiles": "O=C(Nc1ccc2nc(SCCOc3ccccc3Cl)sc2c1)c1ccc2c(c1)OCO2", "activity change, negative = inhibition": "inactive: -13.5%"},
      {"smiles": "CCCCC(=O)NC1(C(F)(F)F)C(=O)Nc2c1c(=O)[nH]c(=O)n2-c1ccc(C)c(C)c1", "note": "(centres undefined)", "outcome": "inactive"},
      {"smiles": "COc1ccc(CC(=O)Nc2cc(-c3cn4cccnc4n3)ccc2OC)cc1", "outcome": "inactive"},
      {"smiles": "CC(=O)c1cccc(NC(=O)Cc2noc3ccccc23)c1", "activity change, negative = inhibition": "inactive: 2.82%"},
      {"smiles": "CC(C)CCNC(=O)CN1C(=O)c2cccnc2Sc2ccccc21", "activity change, negative = inhibition": "inactive: 6.74%"},
      {"smiles": "CCS(=O)(=O)c1ccccc1C(=O)Nc1ccc(-c2nc3ccccc3s2)cc1", "outcome": "inactive"},
      {"smiles": "COc1ccc(OC(C)C(=O)NCc2nc(-c3cccc(C)c3)no2)cc1", "note": "(centres undefined)", "activity change, negative = inhibition": "inactive: -3.12%"}
    ]}
  ]
}
